{"source": "the supplement of paper PMC11417369", "note": "Some of the results follow."}
{"test_system": "PfHDP1 homeodomain (GST-tagged)", "experiment": "gcPBM binding intensity (ln(normalized median fluorescence intensity)); higher = stronger DNA binding", "in_short": "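Using an Agilent 4 × 180k array, primer-extended double-stranded 36-bp intergenic genomic probes and negative controls were exposed for 1 h to GST-fused P. falciparum DNA-binding domains expressed in E. coli. Binding was carried out in 1× PBS with 1% milk, 0.2 mg/ml BSA, 0.5% salmon testes DNA and 0.03% Triton X-100, and protein was detected with Alexa488 anti-GST antibody and a 488 nm scan. Binding intensity is the highest Masliner-normalised natural-log median intensity across replicate spots of either probe orientation.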"}
{"sequence": "TAAGTTTTGTTTTTTTGTACTCATTCATACTATCAT [XGTACX_site3638]", "gcPBM binding intensity (ln)": 6.91}
{"sequence": "TCATTGAAAAAAATCTGTACTGACTATATAGTTGCA [XGTACX_site1566]", "gcPBM binding intensity (ln)": 6.14}
{"sequence": "AAATGTACAGGACGCACACACATATTTATATTTATA [CACACA_site7689]", "gcPBM binding intensity (ln)": 6.7}
{"sequence": "TATATATATATAATTGCACACATCAAGTTTGATGTT [CACACA_site1288]", "gcPBM binding intensity (ln)": 9.99}
{"sequence": "TTTTTTTTTCCTTTTTTTTAAATATTAAAAATGGGA [TGCATGCA_negctrl_site494]", "gcPBM binding intensity (ln)": 5.8}
{"sequence": "TATAATATATGTATATGTACTTATGTTGAGAAACAT [XGTACX_site2117]", "gcPBM binding intensity (ln)": 6.24}
{"sequence": "GTTATATAAACATATGCATGTGAAGTGTTTATTAAT [TGCATGCA_site183]", "gcPBM binding intensity (ln)": 6.86}
{"sequence": "GAATAATATATATGTTCACACATGGTCTTTATTATA [CACACA_site5457]", "gcPBM binding intensity (ln)": 6.66}
{"sequence": "TACCTAATATGTTATACACACATTATGAGTACATAT [CACACA_site2466]", "gcPBM binding intensity (ln)": 6.81}
{"sequence": "AAAATACACGCATACACACACACACCGACACATATA [CACACA_site4523]", "gcPBM binding intensity (ln)": 7.45}
{"sequence": "TAATATTATATTTATAGTACATATAATATATATATA [XGTACX_site2964]", "gcPBM binding intensity (ln)": 8.23}
{"sequence": "TGTTGTGATATATTAAAATCGTCCCTTATAATTTTA [GTGCAC_negctrl_site595]", "gcPBM binding intensity (ln)": 6.52}
{"sequence": "TCTTGATACAAACATTTAAATAAATAAATAAAAAAA [GTGCAC_negctrl_site41]", "gcPBM binding intensity (ln)": 6.59}
{"sequence": "GAACACTAATAATGTTGTACACGTAATTATATATTT [XGTACX_site777]", "gcPBM binding intensity (ln)": 6.53}
{"sequence": "AAACACACACACAAATGTACATATATATATATATTT [XGTACX_site5090]", "gcPBM binding intensity (ln)": 6.94}
{"sequence": "ATATATTTTCATTTTACACACAAATAAAGATAATTT [CACACA_site2996]", "gcPBM binding intensity (ln)": 6.75}
{"sequence": "AAAATAAATAAAAAAAGTACATATATAATTTATAAA [XGTACX_site2411]", "gcPBM binding intensity (ln)": 6.66}
{"sequence": "TATATATATATAAGTAGTACAATAATATATTATTTT [XGTACX_site6450]", "gcPBM binding intensity (ln)": 8.86}
{"sequence": "TTTTACATCATATATAGTACATATATTATACATATA [XGTACX_site8590]", "gcPBM binding intensity (ln)": 6.58}
{"sequence": "TTTTCTTAATATTTCGTTTTACATAAACCTTTTAAA [CACACA_negctrl_site660]", "gcPBM binding intensity (ln)": 6.7}
{"sequence": "AATATAATATTATATAGTACATATTTCTTTTATTTT [XGTACX_site22]", "gcPBM binding intensity (ln)": 6.28}
{"sequence": "TCCATGCATTGACACACACACAAAAAAAAATTCTTT [CACACA_site7847]", "gcPBM binding intensity (ln)": 6.6}
{"sequence": "TTTATTTATTTATGGACACACATACAAATCTTCCAG [CACACA_site4676]", "gcPBM binding intensity (ln)": 6.38}
{"sequence": "CATACATATATACATACACACACATATAACCAATGT [CACACA_site8679]", "gcPBM binding intensity (ln)": 6.94}
{"sequence": "TTTGTATTACGTTTGTGTACATATACAATGTGTTTT [XGTACX_site7708]", "gcPBM binding intensity (ln)": 6.38}
{"sequence": "AATAATAATGCTTTAACTTTGTTGTTATTTAGAATA [CACACA_negctrl_site1144]", "gcPBM binding intensity (ln)": 5.92}
{"sequence": "TATAAATAAAAGTGTACACACATTAAAATCAAACGT [CACACA_site5316]", "gcPBM binding intensity (ln)": 7.19}
{"sequence": "AGATTTATTCATTCATGTACTTATTTATTTTATTTT [XGTACX_site6702]", "gcPBM binding intensity (ln)": 6.17}
{"sequence": "AATGTGCAAACAAACTGTACTTTTTTTTTTTTTTTT [XGTACX_site928]", "gcPBM binding intensity (ln)": 10.6}
{"sequence": "TATTTTTATTTTTAAACCATATATATATATATATAT [CACACA_negctrl_site1560]", "gcPBM binding intensity (ln)": 9.37}
{"sequence": "TATAATGATGATGATAGTACGTATGAGTAAGAAAAA [XGTACX_site31]", "gcPBM binding intensity (ln)": 7.12}
{"sequence": "ATAAAAATATTTATTACACACATAAGCAAAAAAAAA [CACACA_site3484]", "gcPBM binding intensity (ln)": 6.65}
{"sequence": "TATAGTTTCATTCTTTGTACATATATATTATTATTA [XGTACX_site8527]", "gcPBM binding intensity (ln)": 6.7}
{"sequence": "ATTATTAAGGTTTATTCAAAAAAGACGTTTTTAAAT [CACACA_negctrl_site1059]", "gcPBM binding intensity (ln)": 5.99}
{"sequence": "AGACACGTATACGATGCACACGTATGCTTTATATAT [CACACA_site9363]", "gcPBM binding intensity (ln)": 8.32}
{"sequence": "TATGAGAAAAAAAGTACATGCACAAAATGTATATGT [TGCATGCA_site789]", "gcPBM binding intensity (ln)": 8.07}
{"sequence": "ATTATATAAACCAAATGTACAAAAAGGTCGTAGTGG [XGTACX_site1298]", "gcPBM binding intensity (ln)": 7.09}
{"sequence": "CAACATTGTTCCTATTGTACATGAACTGTTCATACG [XGTACX_site4070]", "gcPBM binding intensity (ln)": 6.56}
{"sequence": "ATATGTACAAAATAAGCACACACAAAAAAAAAAAAA [CACACA_site8984]", "gcPBM binding intensity (ln)": 6.29}
{"sequence": "TTTTTTTTTTTTTTTTGTACATAAATTTTTATTAGA [XGTACX_site6409]", "gcPBM binding intensity (ln)": 6.16}
{"sequence": "AAAAAAAAAAAAAATATATATATATATATATATATA [CACACA_negctrl_site540]", "gcPBM binding intensity (ln)": 9.43}
{"sequence": "TCTTGATTAACTTAAAAAAAAAAAAAAAAAAAAAAA [CACACA_negctrl_site458]", "gcPBM binding intensity (ln)": 6.02}
{"sequence": "TTGGCTATAGCCAATTGTACTTTTTCTCTTTGGCTT [XGTACX_site1119]", "gcPBM binding intensity (ln)": 6.2}
{"sequence": "GACATATATACCAAACGTACATATGTGCAAGCATAA [XGTACX_site3089]", "gcPBM binding intensity (ln)": 10.1}
{"sequence": "CATATAATAAATAATTGTACTTGATATAATATTATG [XGTACX_site3562]", "gcPBM binding intensity (ln)": 6.1}
{"sequence": "TATATTTGTGCGTGTACACATTTGAAAAAATATATA [CACACA_site5079]", "gcPBM binding intensity (ln)": 7.23}
{"sequence": "TTTTTTTTTTTTTTTGCACACTTAAATTTGGTGGCT [CACACA_site5319]", "gcPBM binding intensity (ln)": 9.03}
{"sequence": "GCTTAATACAGAATAACACACAAAATAAATAAATAA [CACACA_site4041]", "gcPBM binding intensity (ln)": 6.54}
{"sequence": "TATATAATTATTTTTTGTACTCATAATAATATGAAA [XGTACX_site289]", "gcPBM binding intensity (ln)": 6.86}
{"sequence": "AATAATAATAAAAAGGTGCTGAAATATTTTTATTAT [GTGCAC_site9763]", "gcPBM binding intensity (ln)": 6.6}
{"sequence": "ATAAATTATAATAACTGTACAAAAATAATATATTCA [XGTACX_site1856]", "gcPBM binding intensity (ln)": 6.48}
{"sequence": "GTTAGTTTTAGTTCATGTACATAATAGAAAATATAT [XGTACX_site7125]", "gcPBM binding intensity (ln)": 6.63}
{"sequence": "TATATAATACGAATTTGTACATATTAAATAAATTAT [XGTACX_site93]", "gcPBM binding intensity (ln)": 6.43}
{"sequence": "ATAAAATATAGGTATGCACACACATATACTTCTGTG [CACACA_site8398]", "gcPBM binding intensity (ln)": 8.84}
{"sequence": "GATATATGTATAATAACGCACACTACAAAAATAAAA [CACACA_site2100]", "gcPBM binding intensity (ln)": 7.35}
{"sequence": "AATAAAGAAGAAGAAAGTACACATTTCACAAAGGGG [XGTACX_site1308]", "gcPBM binding intensity (ln)": 6.98}
